# Laboratory results reported in PubChem BioAssay AID485344 (National Center for Advancing Translational Sciences (NCATS), 2010).
# In all, about 340,000 compounds went through this assay and about 6,900 (2%) were called active. Rule as the data show it: active = inhibition above about 30%; inactive = below that, where a call was filed. Only a part is listed here, and it is no random draw. Where no call is shown, the source filed none.
# Target: D(2) dopamine receptor (Homo sapiens) (UniProt P14416)
# Test: HTS Assay for Allosteric Antagonists of the Human D2 Dopamine Receptor: Primary Screen for Antagonists; also: 0% is about no effect
# Conditions: HEK293 TREx D2 cells, calcium flux, dopamine EC80; at 10 µM; stronger effect = higher value
# Method in brief: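 Tetracycline-induced HEK293 T-REx cells expressing D2 force-coupled to calcium signalling were dye-loaded, exposed to compound for 180 s, then challenged with an EC80 of dopamine; calcium flux was followed kinetically for a further 180 s.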
# Sequence of UniProt P14416 (P14416 whole entry, looked up): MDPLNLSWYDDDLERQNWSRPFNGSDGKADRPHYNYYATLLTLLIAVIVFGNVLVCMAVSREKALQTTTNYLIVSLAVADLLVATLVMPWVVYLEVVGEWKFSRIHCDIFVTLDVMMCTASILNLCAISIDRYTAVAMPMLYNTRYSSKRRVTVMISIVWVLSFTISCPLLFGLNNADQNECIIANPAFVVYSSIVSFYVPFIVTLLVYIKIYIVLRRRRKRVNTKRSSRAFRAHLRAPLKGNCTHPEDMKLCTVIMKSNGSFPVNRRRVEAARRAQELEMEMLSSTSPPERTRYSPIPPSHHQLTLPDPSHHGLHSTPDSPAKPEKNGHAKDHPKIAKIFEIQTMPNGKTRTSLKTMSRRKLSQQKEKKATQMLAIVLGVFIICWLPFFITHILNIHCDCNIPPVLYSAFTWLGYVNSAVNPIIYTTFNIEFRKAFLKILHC
row,SMILES,inhibition
1,CCOC(=O)c1noc2ncn(Cc3ccc([N+](=O)[O-])cc3)c(=O)c12,-14.6%
2,CCC(C)n1c(SCc2ccc(F)cc2Cl)nc2ccsc2c1=O (stereo unspecified),-4.68%
3,Cc1ccc(CSc2nc3ccc(NC(=O)CC(C)C)cc3s2)cc1,2.39%
4,COc1ccc(C(=O)NCC(c2ccc(N(C)C)cc2)N2CCOCC2)cc1 (stereo unspecified),18.6%
5,COc1ccc(Cl)cc1NC(=O)CSc1cc(C)[nH]c(=O)n1,4.82%
6,CN(C)CCNC(=O)c1ccc2nc(Cc3ccccc3)oc2c1,-16.6%
7,CCN(CC)C(=O)Cn1cc(SCC(=O)Nc2cc(OC)ccc2OC)c2ccccc21,6.36%
8,COc1ccc(OCC(=O)Nc2ccc3c(c2)nc(CN2CCCC2)n3C)cc1,active: 45.4%
9,O=c1oc2ccccc2cc1-c1nc(-c2cccc(Cl)c2)cs1,-22.6%
10,COc1ccccc1N1CCN(c2ncc3c(n2)CCN(Cc2ccc(C)s2)C3)CC1,-10.3%
11,COc1ccc(NC(=O)CN2CCCN(Cc3ccccc3)S2(=O)=O)cc1,1.25%
12,Cc1ccc(NC(=O)C2CCN(S(=O)(=O)c3ccc4c(c3)CCCC(=O)N4)CC2)c(Br)c1,-16.4%
13,Cc1cccc(NS(=O)(=O)c2ccc3c(c2)n(C)c(=O)n3C)c1C,15.5%
14,Fc1ccc(CNc2nc(-c3ccc(Cl)cc3)cc(C(F)(F)F)n2)cc1,1.6%
15,CCCCOC(=O)c1ccc(NC(=O)c2ccc3c(c2)CCCN3S(C)(=O)=O)cc1,1.9%
16,O=C(CSc1nc2ccccc2nc1Cc1ccc(Cl)cc1)N1CCCCC1,21.6%
17,CCc1ccccc1-n1c(SCC(=O)Nc2ccc(C)cc2)nc2n[nH]c(C)c2c1=N,-16.4%
18,COc1ccc2nc(NC(=O)C3CCN(S(=O)(=O)c4cnc[nH]4)CC3)sc2c1,active: 32.3%
19,O=C(c1ccc2c(c1)N(Cc1ccccc1Cl)C(=O)c1ccccc1S2)N1CCCC1,-7.39%
20,CCc1cccc(NC(=O)Cn2c(-c3ccc(F)cc3)cc(C(C)=O)c2C)c1,-11.4%
21,Cc1ccc(NC(=O)CN2CCCCCC2)cc1Br,active: 41.5%
22,Cc1ccccc1CNC(=O)CN1CCSc2ccccc21,-10.1%
23,Nc1nc2nc(-c3ccccc3)cc(=O)n2[nH]1,0.731%
24,COc1ccc(Nc2ncc(C(=O)Nc3ccc(F)cc3F)c3ccccc23)cc1,7.88%

row,SMILES,inhibition
1,CCCOc1ccc(/C=C2\SC(N)=NC2=O)cc1OC,active: 65.7%
2,CCC(C(=O)Nc1cc(-c2cn3cccnc3n2)ccc1C)c1ccccc1 (stereo unspecified),-10.5%
3,CCOCCCn1c(SCC(=O)Nc2ccc(F)cc2)nc2c(sc3ccccc32)c1=O,11%
4,COc1ccccc1N1CCN(S(=O)(=O)c2ccc3c(c2)CCCN3C(C)=O)CC1,8.45%
5,Cc1cc(=O)n2nc(N3CCC(C(=O)NCCCOC(C)C)CC3)sc2n1,2.33%
6,O=C(CSc1nnc(CNC(=O)c2ccccc2)n1-c1ccc(F)cc1)Nc1ccccc1F,21.9%
7,O=C(CC1NCCNC1=O)Nc1ccc(F)c(Cl)c1 (stereo unspecified),-1.09%
8,Cc1nn(-c2ccc(F)cc2)c(-n2cccc2)c1C(=O)N1CCCCC1C (stereo unspecified),-6.59%
9,Cc1cc(NC(=O)c2oc3c(c2C)-c2[nH]ncc2CC3)ccc1Br,2.76%
10,CCOc1ccc(CNC(=O)CCn2c(=O)c3cccn3c3cccnc32)cc1,-5.03%
11,O=C(CSc1nc(=O)n(Cc2ccco2)c2c1CCC2)NCc1ccccc1Cl,14.2%
12,COC(=O)c1scc(-c2ccc(C)cc2)c1S(=O)(=O)Nc1ccc(OC(F)(F)F)cc1,-0.207%
13,Cc1cc(N2CCN(C)CC2)nc2ccc(NC(=O)Nc3ccc(Cl)cc3)cc12,0.21%
14,N#Cc1ccc(NC(=O)COCc2cc(-c3ccc4c(c3)OCO4)on2)cc1,-6.27%
15,CCOc1ccc(N2CC(NC(=O)c3ccc(S(=O)(=O)N4CCOCC4)cc3)CC2=O)cc1 (stereo unspecified),7.08%
16,COCCNC(=O)CN1C(=O)COc2ccc(S(=O)(=O)N3CCOCC3)cc21,-5.17%
17,CCc1ccccc1N(C)C(=O)Nc1cn(CC(C)C)c(=O)c2ccccc12,9.57%
18,CCn1cc(C(=O)OCC(=O)Nc2cccc(Cl)c2C)c(=O)c2ccc(C)nc21,-0.115%
19,CCC1CCCCN1S(=O)(=O)c1ccc2c(c1)CCCN2C(C)=O (stereo unspecified),-8.43%
20,C=Cc1ccc(CSc2nc(-c3ccccc3C)nc3c2Cc2c(CO)cnc(C)c2O3)cc1,6.82%
21,COC(=O)c1c(SC)nc2ccccc2c1OCc1ccc(C)cc1C,-5.24%
22,O=C(CSc1nnc2scc(-c3ccc(Cl)cc3)n12)Nc1ccccc1F,24.4%
23,Cc1ccc(-c2cc(C(F)(F)F)n3nc(C(=O)Nc4sc5c(c4C#N)CCC(C)C5)cc3n2)cc1 (stereo unspecified),-2.51%
24,Cc1ccc2onc(CC(=O)Nc3cc(F)ccc3F)c2c1,-6.44%

row,SMILES,inhibition
1,COc1ccc(C(=O)Nc2ccc3c(c2)N(C2CCCC2)C(=O)c2ccccc2S3)cc1OC,-5.91%
2,CC(CNC(=O)c1ccc(CSc2nc3ccncc3n2Cc2cccc(F)c2)cc1)c1ccccc1 (stereo unspecified),10.6%
3,CCOc1cccc(CC(=O)N2CCc3c([nH]c4ccccc34)C2c2ccc(C)cc2)c1OCC (stereo unspecified),3.96%
4,Cc1ccc(C)c(-c2nn(CC(=O)Nc3cc(F)ccc3F)c(=O)c3c2CCCC3)c1,8.09%
5,COc1cc(C(=O)Nc2ccc(Cl)c(-c3nc4ncccc4o3)c2)cc(OC)c1OC,-4.53%
6,O=C(Cn1cc(S(=O)(=O)N2CCN(c3ccccc3F)CC2)c2ccccc2c1=O)Nc1cccc(C(F)(F)F)c1,10.6%
7,Cc1ccccc1CNC(=O)CCCn1c(=O)c2cccn2c2ccccc21,-8.81%
8,Cc1cccc2c1-c1sc(C(=O)N3CCN(c4ccc(F)cc4)CC3)cc1CO2,-5.88%
9,COc1ccccc1CNC(=O)CCCn1nc(C)c2c(C)n(-c3ccc(C)cc3)nc2c1=O,-17.7%
10,Cc1nc2ccn(Cc3cccnc3)c(=O)c2cc1C(=O)NCc1ccc(Cl)cc1,-1.37%
11,COc1ccc(N2C(=O)CSC23C(=O)N(CC(=O)NCc2ccccc2)c2ccccc23)cc1 (stereo unspecified),-5.42%
12,COc1ccc(S(=O)(=O)NC2(C(F)(F)F)NC(=O)N(CCc3ccc(OC)c(OC)c3)C2=O)cc1 (stereo unspecified),3.07%
13,CS(=O)(=O)NCCc1csc2nc(-c3ccccc3)nn12,-3.61%
14,COc1cc(C2C(C(=O)OC(C)C)=C(C)N=C3SCCC(=O)N32)ccc1OCc1ccccc1 (stereo unspecified),21%
15,COc1ccc(OC)c(NC(=O)c2c(NCc3ccc(C)o3)sc3c2CCCCC3)c1,4.2%
16,COc1cccc(NC(=O)N(Cc2cn(C)c3ccccc23)C2CCCCC2)c1,-1.5%
17,COc1ccc(NC(=O)NCc2cccn2Cc2ccc(F)cc2)cc1OC,-9.78%
18,Cc1cc(Nc2ccccc2Cl)n2nc(-c3ccco3)nc2n1,-11.6%
19,COc1ccccc1CNC(=O)C1CCN(S(=O)(=O)c2c(C)noc2/C=C/c2cccs2)CC1,8.88%
20,Cc1cc(=O)n(Cc2ccc(F)cc2Cl)c2c1c(C)nn2-c1ccccc1,14.4%
21,CCn1c(=O)c2sccc2n2c(CCCC(=O)N3CCN(c4cc(C)ccc4C)CC3)nnc12,-11.9%
22,Cc1ccn2c(=O)c(C(=O)NCCc3ccc(S(N)(=O)=O)cc3)c(O)nc2c1,11.2%
23,COc1ccccc1N1CCN(S(=O)(=O)CCNC(=O)COc2ccc(F)cc2)CC1,-6.88%
24,Cc1ccc(CNC(=O)Cn2c(=O)cc(-c3ccccc3)c3c(C)nn(C)c32)cc1,-5.37%

row,SMILES,inhibition
1,COc1cc(C2CC(=O)Oc3c(C(CCN4CCCC(C)C4)c4ccc(N(C)C)cc4)c(OC)cc(OC)c32)cc(OC)c1OC (stereo unspecified),active: 43.7%
2,CCOc1ccc(C(=O)NCCC2=CCCCC2)cc1OCC,active: 37.5%
3,CCc1ccc(NC(=O)CC2C(=O)N(c3ccc(OC)cc3)C(=O)N2Cc2ccc(OC)cc2)cc1 (stereo unspecified),-3.69%
4,Cc1c(C(=O)NCCc2ccccc2)cccc1-n1cnc2cccnc21,1.33%
5,COc1ccc(CCNc2ncnc3c2c(-c2ccccc2)cn3-c2cccc(Cl)c2)cc1OC,-20.8%
6,CCOc1ccc(NC(=O)Cn2c(=O)n(Cc3ccccc3)c(=O)c3sc4ccccc4c32)cc1,-1.94%
7,Cc1cc(C)cc(NC(=O)CN2C(=O)CSc3ccc(S(=O)(=O)N4CCCC4)cc32)c1,9.54%
8,COc1ccccc1/C=C\C(=O)NCC(=O)N/N=C/c1cccc(OC)c1O,active: 49.5%
9,CCOc1ccc(NC(=O)c2c(NC(=O)c3cccc(C)c3)sc3c2CCC3)cc1,5.66%
10,O=C(NCC1CCN(Cc2cccc(F)c2)CC1)c1cc2ccc3cccnc3c2[nH]1,11.5%
11,CCOC(=O)c1c(NC(=O)CSc2cn(CCNC(=O)c3ccccc3OC)c3ccccc23)sc2c1CCCC2,9%
12,CC1=C(c2ccc(C(C)C)cc2)S(=O)(=O)N=C1N1CCC(C(=O)NCc2ccco2)CC1,4.7%
13,Cc1nn(CC(=O)N2CCN(c3ccccc3)CC2)c(=O)c2cc3cc(F)ccc3n12,1.29%
14,CCSc1nc(-c2ccccc2)nc2c1Cc1c(CO)cnc(C)c1O2,-4.03%
15,CCOC(=O)C1CCN(C(=O)C2CCN(S(=O)(=O)c3c(C)noc3/C=C/c3ccc(C)cc3)CC2)CC1,10.5%
16,CCOC(=O)c1[nH]c(C)c(CCC(=O)N2CCN(c3ccc(OC)cc3)CC2)c1C,-10.2%
17,O=C(O)CCC(=O)N1CCc2cc(S(=O)(=O)NCc3ccc(F)cc3)ccc21,-23.1%
18,COc1ccc(NC(=O)c2cccc3c(=O)c4c([nH]c23)CCCC4)cc1,19.3%
19,Cc1ccc(C(C)C)c(OCC(=O)Nc2ccc3c(c2)nc(CCNC(=O)c2ccco2)n3C)c1,4.05%
20,CCCC1=Nc2cc(C(=O)NCc3ccccc3)ccc2Sc2ccccc21,5.57%
21,COc1ccc(S(=O)(=O)NCCc2sc(-c3cccnc3)nc2C)cc1,-15.4%
22,Cn1c(=O)c2c(-c3ccccc3)n3c(c2n(C)c1=O)C(c1ccc([N+](=O)[O-])cc1)Nc1ccccc1-3 (stereo unspecified),-10.3%
23,COc1ccc(NC(=O)Cn2c(=O)c3cccn3c3ccccc32)cc1,-4.54%
24,O=C(NC1CC(=O)N(c2ccc(F)cc2)C1)c1ccc(S(=O)(=O)N2CCOCC2)cc1 (stereo unspecified),12.9%
